# Data from the supplement of paper PMC8728848.
# Some of the results follow.
# B1: LecRKVI.2 (protein)
# chain: RTTTNFAFRGFNGNQSKIRIEGAAMIKPDGLLRLTDRKSNVTGTAFYHKPVRLLNRNSTNVTIRSFSTSFVFVIIPSSSSNKGFGFTFTLSPTPYRLNAGSAQYLGVFNKENNGDPRNHVFAVEFDTVQGSRDDNTDRIGNDIGLNYNSRTSDLQEPVVYYNNDDHNKKEDFQLESGNPIQALLEYDGATQMLNVTVYPARLGFKPTKPLISQHVPKLLEIVQEEMYVGFTASTGKGQSSAHYVMGWSFSSGGERPIADVLILSELPPPPPNKAKKEGLNS
# What was measured:
# Test in all cases: glycan array binding signal (z-score within array); higher = stronger binding
# Settings in all cases: glycan notation: IUPAC condensed, linker removed
# [1] = target: Fuc(a1-2)Gal(b1-4)[Fuc(a1-3)]GlcNAc(b1-2)Man(a1-3)[Fuc(a1-2)Gal(b1-4)[Fuc(a1-3)]GlcNAc(b1-2)Man(a1-6)]Man(b1-4)GlcNAc(b1-4)[Fuc(a1-6)]GlcNAc
# How it was run: (§1)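 Glycan array binding is given as a within-array Z-score, which can be read as non-binding when negative. The arrays, 3228 of them, came from the Consortium for Functional Glycomics database and were retained only where the protein sequence was available. Z-scores were averaged across arrays of the same protein sequence at different concentrations or buffers and across linkers.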
# [2] = target: Fuc(a1-2)Gal(b1-4)[Fuc(a1-3)]GlcNAc(b1-2)[Fuc(a1-2)Gal(b1-4)[Fuc(a1-3)]GlcNAc(b1-4)]Man(a1-3)[Fuc(a1-2)Gal(b1-4)[Fuc(a1-3)]GlcNAc(b1-2)Man(a1-6)]Man(b1-4)GlcNAc(b1-4)GlcNAc
# How it was run: as §1
# [3] = target: Fuc(a1-2)Gal(b1-4)[Fuc(a1-3)]GlcNAc(b1-3)Gal(b1-4)[Fuc(a1-3)]GlcNAc
# How it was run: as §1
# [4] = target: Fuc(a1-2)Gal(b1-4)[Fuc(a1-3)]GlcNAc(b1-3)Gal(b1-4)[Fuc(a1-3)]GlcNAc(b1-3)Gal(b1-4)[Fuc(a1-3)]GlcNAc
# How it was run: as §1
# [5] = target: Fuc(a1-2)Gal(b1-4)[Fuc(a1-3)]GlcNAc(b1-3)GalNAc
# How it was run: as §1
# [6] = target: Fuc(a1-2)Gal(b1-4)[Fuc(a1-3)]GlcNAc(b1-3)[Neu5Ac(a2-6)Gal(b1-4)GlcNAc(b1-6)]Gal(b1-4)Glc
# How it was run: as §1
# [7] = target: Fuc(a1-2)Gal3S(b1-4)GlcNAc
# How it was run: as §1
# [8] = target: Fuc(a1-2)Gal6S(b1-3)GlcNAc
# How it was run: as §1
# [9] = target: Fuc(a1-2)Gal6S(b1-3)GlcNAc6S
# How it was run: as §1
# Fuc(a1-2)Gal6S(b1-4)Glc = target: Fuc(a1-2)Gal6S(b1-4)Glc
# How it was run: as §1
# [10] = target: Fuc(a1-2)Gal6S(b1-4)Glc6S
# How it was run: as §1
# Fuc(a1-2)[Gal(a1-3)]Gal = target: Fuc(a1-2)[Gal(a1-3)]Gal
# How it was run: as §1
# [11] = target: Fuc(a1-2)[Gal(a1-3)]Gal(b1-3)GalNAc
# How it was run: as §1
# [12] = target: Fuc(a1-2)[Gal(a1-3)]Gal(b1-3)GalNAc(b1-3)Gal(a1-4)Gal(b1-4)Glc
# How it was run: as §1
# [13] = target: Fuc(a1-2)[Gal(a1-3)]Gal(b1-3)GlcNAc
# How it was run: as §1
# [14] = target: Fuc(a1-2)[Gal(a1-3)]Gal(b1-3)GlcNAc(b1-2)Man(a1-3)[Fuc(a1-2)[Gal(a1-3)]Gal(b1-3)GlcNAc(b1-2)Man(a1-6)]Man(b1-4)GlcNAc(b1-4)GlcNAc
# How it was run: as §1
# [15] = target: Fuc(a1-2)[Gal(a1-3)]Gal(b1-3)GlcNAc(b1-2)Man(a1-3)[Fuc(a1-2)[Gal(a1-3)]Gal(b1-3)GlcNAc(b1-2)Man(a1-6)]Man(b1-4)GlcNAc(b1-4)[Fuc(a1-6)]GlcNAc
# How it was run: as §1
# [16] = target: Fuc(a1-2)[Gal(a1-3)]Gal(b1-3)GlcNAc(b1-3)GalNAc
# How it was run: as §1
# [17] = target: Fuc(a1-2)[Gal(a1-3)]Gal(b1-3)GlcNAc(b1-6)GalNAc
# How it was run: as §1
# [18] = target: Fuc(a1-2)[Gal(a1-3)]Gal(b1-4)Glc
# How it was run: as §1
# [19] = target: Fuc(a1-2)[Gal(a1-3)]Gal(b1-4)GlcNAc
# How it was run: as §1
# [20] = target: Fuc(a1-2)[Gal(a1-3)]Gal(b1-4)GlcNAc(b1-2)Man
# How it was run: as §1
# [21] = target: Fuc(a1-2)[Gal(a1-3)]Gal(b1-4)GlcNAc(b1-2)Man(a1-3)[Fuc(a1-2)[Gal(a1-3)]Gal(b1-4)GlcNAc(b1-2)Man(a1-6)]Man(b1-4)GlcNAc(b1-4)GlcNAc
# How it was run: as §1
# [22] = target: Fuc(a1-2)[Gal(a1-3)]Gal(b1-4)GlcNAc(b1-2)Man(a1-3)[Fuc(a1-2)[Gal(a1-3)]Gal(b1-4)GlcNAc(b1-2)Man(a1-6)]Man(b1-4)GlcNAc(b1-4)[Fuc(a1-6)]GlcNAc
# How it was run: as §1
# [23] = target: Fuc(a1-2)[Gal(a1-3)]Gal(b1-4)GlcNAc(b1-3)GalNAc
# How it was run: as §1
# [24] = target: Fuc(a1-2)[Gal(a1-3)]Gal(b1-4)GlcNAc(b1-3)[Fuc(a1-2)[Gal(a1-3)]Gal(b1-4)GlcNAc(b1-6)]GalNAc
# How it was run: as §1
# [25] = target: Fuc(a1-2)[Gal(a1-3)]Gal(b1-4)GlcNAc(b1-6)GalNAc
# How it was run: as §1
# [26] = target: Fuc(a1-2)[Gal(a1-3)]Gal(b1-4)[Fuc(a1-3)]Glc
# How it was run: as §1
# [27] = target: Fuc(a1-2)[Gal(a1-3)]Gal(b1-4)[Fuc(a1-3)]GlcNAc
# How it was run: as §1
# [28] = target: Fuc(a1-2)[Gal(a1-3)]Gal(b1-4)[Fuc(a1-3)]GlcNAc(b1-3)GalNAc
# How it was run: as §1
# [29] = target: Fuc(a1-2)[Gal(a1-4)]Gal(b1-4)GlcNAc
# How it was run: as §1
# [30] = target: Fuc(a1-2)[GalNAc(a1-3)]Gal
# How it was run: as §1
# [31] = target: Fuc(a1-2)[GalNAc(a1-3)]Gal(b1-3)GalNAc(a1-3)[Fuc(a1-2)]Gal(b1-4)GlcNAc
# How it was run: as §1
# [32] = target: Fuc(a1-2)[GalNAc(a1-3)]Gal(b1-3)GalNAc(b1-3)Gal(a1-4)Gal(b1-4)Glc
# How it was run: as §1
# [33] = target: Fuc(a1-2)[GalNAc(a1-3)]Gal(b1-3)GlcNAc
# How it was run: as §1
# [34] = target: Fuc(a1-2)[GalNAc(a1-3)]Gal(b1-3)GlcNAc(b1-2)Man(a1-3)[Fuc(a1-2)[GalNAc(a1-3)]Gal(b1-3)GlcNAc(b1-2)Man(a1-6)]Man(b1-4)GlcNAc(b1-4)GlcNAc
# How it was run: as §1
# [35] = target: Fuc(a1-2)[GalNAc(a1-3)]Gal(b1-3)GlcNAc(b1-2)Man(a1-3)[Fuc(a1-2)[GalNAc(a1-3)]Gal(b1-3)GlcNAc(b1-2)Man(a1-6)]Man(b1-4)GlcNAc(b1-4)[Fuc(a1-6)]GlcNAc
# How it was run: as §1
# [36] = target: Fuc(a1-2)[GalNAc(a1-3)]Gal(b1-3)GlcNAc(b1-3)GalNAc
# How it was run: as §1
binder,measurement,setting,value
B1,glycan array binding signal (z-score),[1],-0.315
same,glycan array binding signal (z-score),[2],-0.003
same,glycan array binding signal (z-score),[3],-0.315
same,glycan array binding signal (z-score),[4],-0.413
same,glycan array binding signal (z-score),[5],4.76
same,glycan array binding signal (z-score),[6],-0.288
same,glycan array binding signal (z-score),[7],-0.468
same,glycan array binding signal (z-score),[8],-0.432
same,glycan array binding signal (z-score),[9],-0.288
same,glycan array binding signal (z-score),Fuc(a1-2)Gal6S(b1-4)Glc,-0.362
same,glycan array binding signal (z-score),[10],0.023
same,glycan array binding signal (z-score),Fuc(a1-2)[Gal(a1-3)]Gal,-0.37
same,glycan array binding signal (z-score),[11],-0.358
same,glycan array binding signal (z-score),[12],-0.403
same,glycan array binding signal (z-score),[13],-0.329
same,glycan array binding signal (z-score),[14],0.691
same,glycan array binding signal (z-score),[15],-0.246
same,glycan array binding signal (z-score),[16],-0.414
same,glycan array binding signal (z-score),[17],-0.407
same,glycan array binding signal (z-score),[18],-0.169
same,glycan array binding signal (z-score),[19],-0.264
same,glycan array binding signal (z-score),[20],-0.253
same,glycan array binding signal (z-score),[21],0.276
same,glycan array binding signal (z-score),[22],-0.403
same,glycan array binding signal (z-score),[23],-0.375
same,glycan array binding signal (z-score),[24],1.79
same,glycan array binding signal (z-score),[25],-0.443
same,glycan array binding signal (z-score),[26],-0.393
same,glycan array binding signal (z-score),[27],-0.241
same,glycan array binding signal (z-score),[28],-0.276
same,glycan array binding signal (z-score),[29],-0.271
same,glycan array binding signal (z-score),[30],-0.335
same,glycan array binding signal (z-score),[31],-0.273
same,glycan array binding signal (z-score),[32],-0.183
same,glycan array binding signal (z-score),[33],-0.238
same,glycan array binding signal (z-score),[34],-0.337
same,glycan array binding signal (z-score),[35],-0.318
same,glycan array binding signal (z-score),[36],-0.129
